From patent publication US11034672B1, “Tyrosine kinase inhibitor compositions, methods of making and methods of use” (Black Diamond Therapeutics, Inc., priority 2018, dated 2021)

Test system: covalently-activated EGFR variants
Assay: Covalent dimer formation, Western blot under non-reducing conditions
Format: cell-based
Details: covalent dimers of covalently-activated EGFR variants (EGFR-Vii, EGFR-A289V), Table 6

Structure (SMILES)	Induced dimers
C=CC(=O)Nc1ccc2ncnc(Nc3ccc(OCc4cccc(F)c4)c(Cl)c3)c2c1 [AST-1306]	No
COc1cc2ncnc(Nc3ccc(F)c(Cl)c3)c2cc1NC(=O)/C=C/CN1CCCCC1 [Dacomitinib, dacomitinib]	Yes
CCOc1cc2ncc(C#N)c(Nc3ccc(OCc4cccc(F)c4)c(Cl)c3)c2cc1NC(=O)/C=C/CN(C)C [HKI-357]	No
